The campaign covered roughly 310,000 compounds. About 11,000 (3.5%) were called active. Inconclusive means that the source gave no clear call. Such entries were picked first, then a sample of the others. Calls follow the shape of the dose curve; as a rule, active = well fitted inhibition curve with a large enough effect; inconclusive = small, poorly fitted or top-dose-only effect, or effect the other way; inactive = flat fitted curve, though single readings scatter. No potency is given beside an inconclusive call; the fits are too rough.
Experiment: VP16 counterscreen qHTS for inhibitors of ROR gamma transcriptional activity;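 also: Gal4-VP16 expression switched on by copper sulfate through the metallothionein promoter; nearly all actives have a fitted effect of over 50% in size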
Settings: Drosophila S2 Gal4-VP16 UAS-luciferase, luminescence, 20 h; activity, negative = inhibition: at 53.6 µM (top of the series)
% is scaled to controls: 0 for no effect and ±100 for the full control effect; potency is read from the fitted curve at half-maximal effect; tags tell the direction and shape of the fitted curve.

Compound	activity, negative = inhibition	Potency
Nc1c(C(=O)OCC2CCCO2)c2nc3ccccc3nc2n1-c1ccc2c(c1)OCCO2 (stereo unspecified)	inactive: -4.31%	
O=C(NCc1cn(-c2ccccc2)nc1-c1ccccc1)c1ccc([N+](=O)[O-])cc1		active: 7.08 µM
Cc1cccc(C(=O)N[C@H](C(=O)Nc2ncc(C)s2)C(C)C)c1	inactive: -16.1%	
CCOC(=O)C1=NO[C@@]2(C=C(Br)C(=O)[C@H]3O[C@H]32)C1		inconclusive [inhibitor, single point]
COC(=O)c1sccc1NC(=S)Nc1cccc(F)c1		inconclusive [inhibitor, single point]
COc1ccccc1C1NC(=O)NC(C)=C1C(=O)OC1CCCC(C)C1 (stereo unspecified)		inconclusive [inhibitor, single point]
CC(C)CCn1c(COc2ccccc2)n[nH]c1=S		inconclusive [inhibitor, partial curve]
COc1cnc(-c2ccccn2)nc1N(C)C		inconclusive [inhibitor, single point]
CN1CCN(CCCNC(=O)c2ccc(/C=C3\Oc4ccccc4N(Cc4ccccc4F)C3=O)cc2)CC1		inconclusive [inhibitor, single point]
Cc1cc(C)n(-c2ccc(C(=O)Nc3cccnc3Cl)cc2)n1	inactive: 7.13%	
O=C1c2ccccc2C(=O)c2c1cccc2N1CCCC1		inconclusive [inhibitor, partial curve]
CCc1c2c(nc3ccc(OC)cc13)OC(CC)C2 (stereo unspecified)	inactive: 21.4%	
CC(C)c1ccc(N2C(=O)CC(Sc3nc4ccccc4o3)C2=O)cc1 (stereo unspecified)		active: 3.98 µM
O=C(CNC(=S)NC(=O)c1ccc(Cl)cc1)c1ccccc1		active: 12.6 µM
COc1ccccc1N1CCN(C(=O)c2ccc3c(Cl)c4c(nc3c2)CCCC4)CC1	inactive: -8.58%	
Cc1ccc(C(=O)Nc2cccc(C(=O)N/N=C/c3ccccc3F)c2)cc1		inconclusive [inhibitor, single point]
Fc1cc(Br)ccc1NC(=S)NCCc1ccccc1		inconclusive [inhibitor, single point]
CCOC(=O)c1c(-c2ccc(C)o2)csc1NC(=O)CSc1nnc(C)s1		inconclusive [inhibitor, single point]
Cc1cccc(NC(=S)Nc2ccc(Cl)c(Cl)c2)c1		inconclusive [inhibitor, single point]
Cc1ccc2c(CN(C)Cc3cccc(F)c3)cc(=O)oc2c1	inactive: 0.459%	
COc1ccc(/C=C/C(=O)c2cc(F)ccc2OC(=O)c2ccccc2OC)cc1OC		inconclusive [activator, single point]

From PubChem BioAssay AID2546 (National Center for Advancing Translational Sciences (NCATS), 2010)
